This list was built around the results that the source calls inconclusive (neither active nor inactive); the mix of calls is not that of the screen. No potency is given beside an inconclusive call; the fits are too rough. Active and inactive are the calls of the source. Calls come from the whole dose curve; as a rule, active = well fitted curve in the direction sought with a large enough effect; inconclusive = small, poorly fitted or top-dose-only effect, or another doubt; inactive = no such curve, though single readings can be large; an effect the other way counts as inactive or inconclusive.
How the values were obtained:
[1] = molecular target: Rap guanine nucleotide exchange factor 3 (Homo sapiens) (UniProt O95398); experiment: Confirmatory qHTS for antagonist of cAMP-regulated guanine nucleotide exchange factor 3 (EPAC1) (AID 1645880); settings: EPAC1 Rap1B-BODIPY-GDP exchange, fluorescence; activity, negative = inhibition: at 115 µM (top of the series); note: nearly all actives have a fitted effect of over 55% in size;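 for activity, negative = inhibition: plate controls were DMSO only for no effect and full effect of the ATA control for full effect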
Outline: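 Released BODIPY-GDP fluoresces less than Rap1-bound BODIPY-GDP; the signal is followed at 480/540 nm at 5-min intervals over 30 min, after 5 min at room temperature. Reactions contain 100 nM EPAC1, 250 nM RAP1B-BODIPY-GDP and 50 uM GDP; results are normalized to ATA and DMSO.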

[2] = molecular target: Rap guanine nucleotide exchange factor 4 (Homo sapiens) (UniProt Q8WZA2); experiment: Confirmatory qHTS for antagonist of cAMP-regulated guanine nucleotide exchange factor 4 (EPAC2) (AID 1645885); settings: activity change, negative = inhibition: at 12.7 µM (top of the series) unless noted; note: nearly all actives have a fitted effect of over 25% in size; for activity change, negative = inhibition: % is set by controls: 0 for no effect and ±100 for the full control effect
[3] = molecular target: Rap guanine nucleotide exchange factor 3 (Homo sapiens) (UniProt O95398); experiment: Counterscreen qHTS for agonist of cAMP-regulated guanine nucleotide exchange factor 3 (EPAC1) (AID 1645889); settings: EPAC1 Rap1B-BODIPY-GDP exchange, fluorescence; activation: at 154 µM (top of the series) unless noted; note: nearly all actives have a fitted effect of over 40% in size; for activation: % of control where 0% means no effect
Outline: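 Rap1B–BODIPY-GDP (250 nM) with 50 uM GDP; compounds pin-transferred to 9.74 nM–152 uM final (activator) or from 7.32 nM upwards (inhibitor). Fluorescence Ex/Em 480/540 nm read at 5 and 30 min, then after adding cAMP or buffer, at room temperature.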
Potency is the fitted concentration of half-maximal effect; tags give direction and shape of the fitted curve.

Sequence of UniProt O95398 (O95398 whole entry, looked up): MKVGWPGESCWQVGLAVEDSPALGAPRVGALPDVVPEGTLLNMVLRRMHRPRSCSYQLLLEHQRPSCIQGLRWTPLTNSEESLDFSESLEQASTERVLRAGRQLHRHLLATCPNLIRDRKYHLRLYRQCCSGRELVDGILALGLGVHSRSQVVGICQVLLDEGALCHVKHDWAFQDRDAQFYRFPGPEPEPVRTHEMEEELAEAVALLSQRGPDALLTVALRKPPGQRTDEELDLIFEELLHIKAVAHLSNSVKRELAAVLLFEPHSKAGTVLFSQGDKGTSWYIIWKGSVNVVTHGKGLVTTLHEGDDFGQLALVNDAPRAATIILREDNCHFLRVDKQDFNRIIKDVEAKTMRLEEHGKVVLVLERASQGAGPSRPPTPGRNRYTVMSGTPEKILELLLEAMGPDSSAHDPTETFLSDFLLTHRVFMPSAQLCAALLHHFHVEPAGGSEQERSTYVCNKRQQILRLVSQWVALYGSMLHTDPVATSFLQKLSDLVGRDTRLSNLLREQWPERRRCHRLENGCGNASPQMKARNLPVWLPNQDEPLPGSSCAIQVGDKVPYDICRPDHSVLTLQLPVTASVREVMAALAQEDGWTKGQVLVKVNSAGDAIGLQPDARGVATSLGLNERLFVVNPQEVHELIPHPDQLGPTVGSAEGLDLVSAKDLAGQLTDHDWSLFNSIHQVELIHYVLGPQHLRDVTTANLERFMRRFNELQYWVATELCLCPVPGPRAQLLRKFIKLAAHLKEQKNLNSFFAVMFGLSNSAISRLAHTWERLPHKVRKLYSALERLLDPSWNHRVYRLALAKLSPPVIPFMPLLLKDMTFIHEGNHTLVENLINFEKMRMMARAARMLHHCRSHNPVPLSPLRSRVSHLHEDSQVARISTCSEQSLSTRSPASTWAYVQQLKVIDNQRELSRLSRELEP
Sequence of UniProt Q8WZA2 (Q8WZA2 whole entry, looked up): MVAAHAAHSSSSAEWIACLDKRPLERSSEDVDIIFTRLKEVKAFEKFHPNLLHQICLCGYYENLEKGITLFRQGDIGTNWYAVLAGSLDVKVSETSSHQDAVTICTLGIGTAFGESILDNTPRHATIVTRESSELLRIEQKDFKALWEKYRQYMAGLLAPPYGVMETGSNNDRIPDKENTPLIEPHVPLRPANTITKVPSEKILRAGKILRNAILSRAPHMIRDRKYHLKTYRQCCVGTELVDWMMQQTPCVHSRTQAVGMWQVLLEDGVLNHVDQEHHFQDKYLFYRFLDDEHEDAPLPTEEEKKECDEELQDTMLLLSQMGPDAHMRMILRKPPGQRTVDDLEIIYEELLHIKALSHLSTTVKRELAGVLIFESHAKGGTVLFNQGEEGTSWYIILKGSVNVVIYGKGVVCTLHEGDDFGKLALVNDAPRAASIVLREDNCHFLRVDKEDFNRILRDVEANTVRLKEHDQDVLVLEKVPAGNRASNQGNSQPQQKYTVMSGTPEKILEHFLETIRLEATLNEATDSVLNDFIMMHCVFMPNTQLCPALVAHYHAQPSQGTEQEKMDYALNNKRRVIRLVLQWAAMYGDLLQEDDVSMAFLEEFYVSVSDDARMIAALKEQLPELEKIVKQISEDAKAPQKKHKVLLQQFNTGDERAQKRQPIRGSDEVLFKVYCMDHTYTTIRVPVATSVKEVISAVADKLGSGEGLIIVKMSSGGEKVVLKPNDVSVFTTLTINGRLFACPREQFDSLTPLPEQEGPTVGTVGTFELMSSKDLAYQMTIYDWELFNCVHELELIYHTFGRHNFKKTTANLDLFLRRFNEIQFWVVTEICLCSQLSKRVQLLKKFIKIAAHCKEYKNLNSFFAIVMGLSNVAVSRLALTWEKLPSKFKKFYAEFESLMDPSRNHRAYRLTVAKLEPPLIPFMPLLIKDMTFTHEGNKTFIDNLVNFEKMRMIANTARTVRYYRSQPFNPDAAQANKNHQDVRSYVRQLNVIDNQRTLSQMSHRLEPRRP

COc1cc2c(cc1OC)C(c1ccc(Cl)cc1)N(c1ccc(C)c(F)c1)C(=O)C2 (stereo not drawn)
Potency [1]: inconclusive [inhibitor, partial curve] | outcome [2]: inactive [at 12.7 µM] | Potency [3]: inconclusive [activator, single point]

CCCC1=C(C(=O)OCC)C(c2ccco2)C(C#N)=C(N)O1 (stereo not drawn)
Potency [1]: inconclusive [inhibitor, partial curve, poor fit] | Potency [2]: inactive | Potency [3]: inconclusive [activator, full curve, poor fit]

CCCC(=O)OC1CC(C)N(C(=O)c2ccccc2)c2ccc(C)cc21 (stereo not drawn)
Potency [1]: inconclusive [inhibitor, partial curve, poor fit] | Potency [2]: active: 3.38 µM | Potency [3]: inconclusive [activator, full curve, poor fit]

O=C1NC(=O)C(=Cc2ccccc2[N+](=O)[O-])S1
Potency [1]: inconclusive [inhibitor, partial curve] | Potency [2]: inactive | Potency [3]: inconclusive [activator, partial curve, poor fit]

Cc1cc(C)cc(NC(=O)CSc2nnc(-c3cc4occc4n3C)n2-c2ccccc2C)c1
Potency [1]: inactive | Potency [2]: inconclusive [inhibitor, single point] | Potency [3]: inconclusive [activator, full curve, poor fit]

CCCNC(=O)Cn1c(=O)/c(=C/c2ccc(-c3ccc([N+](=O)[O-])cc3)o2)s/c1=C\C(=O)C(C)(C)C
Potency [1]: active: 37.9 µM | Potency [2]: inconclusive [inhibitor, full curve, poor fit] | Potency [3]: active: 5.01 µM

C#Cc1ccc([C@@H]2C=C(C(=O)NCc3ccccc3)O[C@H](OCc3ccc(CO)cc3)C2)cc1
Potency [1]: inconclusive [inhibitor, partial curve] | Potency [2]: inactive | Potency [3]: inactive

O=C(c1ccccc1)c1cccc2ccccc12
Potency [1]: inactive | Potency [2]: inconclusive [inhibitor, partial curve] | activation [3]: inactive: 19% [at 30.8 µM]

CCSc1oc(-c2cccs2)nc1S(=O)(=O)c1ccccc1
Potency [1]: inactive | Potency [2]: inconclusive [inhibitor, partial curve, poor fit] | Potency [3]: inconclusive [activator, full curve, poor fit]

O=C(Nc1nc2ccccc2c(=O)s1)c1ccc(F)cc1Cl
Potency [1]: inconclusive [inhibitor, partial curve] | Potency [2]: inconclusive [inhibitor, single point] | Potency [3]: inactive

Cc1ccc(S(=O)(=O)Oc2cccc(/C=N/Nc3ccc(C(=O)O)cc3)c2)cc1
Potency [1]: inconclusive [inhibitor, single point] | Potency [2]: inconclusive [inhibitor, partial curve] | activation [3]: inconclusive: 29.6% [activator]

CCOc1ccc(S(=O)(=O)Nc2nc3ccccc3nc2-n2ccc(=NC(=O)c3cccs3)cc2)cc1
Potency [1]: inconclusive [inhibitor, partial curve, poor fit] | Potency [2]: inconclusive [inhibitor, full curve, poor fit] | Potency [3]: inconclusive [activator, single point]

COc1ccc(OCc2nc3ccccc3n2Cc2ccc(C(C)(C)C)cc2)cc1
Potency [1]: inconclusive [inhibitor, partial curve, poor fit] | Potency [2]: inactive | Potency [3]: inconclusive [activator, full curve, poor fit]

Fc1ccc2cnc(-c3ccccc3)c(-c3ccc(C(F)(F)F)cc3)c2c1
Potency [1]: inconclusive [inhibitor, partial curve] | Potency [2]: inconclusive [inhibitor, full curve] | Potency [3]: inactive

Cc1ccc(C)c(N2CCN(C(=O)c3ccc4c(=O)n5c(nc4c3)CCCCC5)CC2)c1
Potency [1]: inconclusive [inhibitor, full curve, poor fit] | Potency [2]: inactive | Potency [3]: inconclusive [activator, partial curve, poor fit]

O=C(Nc1ccccc1)C1=C(O)CC(c2ccc(Cl)cc2)N2CCN=C12 (stereo not drawn)
Potency [1]: inconclusive [inhibitor, full curve, poor fit] | Potency [2]: inactive | Potency [3]: inconclusive [activator, partial curve]

From PubChem BioAssay (NCATS)
